# Out of some 420,000 compounds screened, about 50,000 (12%) were called active. Inconclusive results, whose numbers are uncertain, are shown with a selection of clear calls. Calls follow the shape of the dose curve; as a rule, active = well fitted inhibition curve with a large enough effect; inconclusive = small, poorly fitted or top-dose-only effect; inactive = flat fitted curve, though single readings scatter. No potency is given beside an inconclusive call; the fits are too rough.
# Assay: qHTS for Inhibitors of human tyrosyl-DNA phosphodiesterase 1 (TDP1): qHTS in cells in presence of CPT; also: nearly all actives have a fitted effect of over 55% in size
# Settings: chicken DT40 Tdp1-/-;hTDP1 cells + 20 nM CPT, ATP luminescence, 48 h; activity change, negative = growth inhibition: at 46.2 µM (top of the series) unless noted
# Outline: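 Chicken DT40 Tdp1-/- cells complemented with human TDP1, 400 cells/well, exposed to compounds plus 20 nM camptothecin for at least 48 h at 37 C; viability read as ATP content by CellTiter-Glo luminescence.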
# % is scaled to controls: 0 for no effect and ±100 for the full control effect; potency is read from the fitted curve at half-maximal effect; tags tell the direction and shape of the fitted curve.
Structure (SMILES),Potency,"activity change, negative = growth inhibition"
Cc1ccc(NC(=O)Nc2nnc(SCC(=O)N3CCC(C)CC3)s2)cc1,"inconclusive [inhibitor, single point]",
COCC1CCN(C(=O)c2cc(COc3ccc(F)cc3Cl)on2)C1 (stereo not drawn),"inconclusive [inhibitor, single point]",
Cc1cc(C)c2nc(/N=C(\N)NC(=O)Nc3ccccc3)nc(C)c2c1,active: 23.1 µM,
COCc1cccc(-c2csc(C(NC(C)=O)c3ccc(F)c(F)c3)n2)c1 (stereo not drawn),"inconclusive [inhibitor, single point]",
COCCNC(=O)CSc1nc2ccccc2c(=O)n1-c1cccc(OC)c1,,inactive: -20.1%
CCOc1ccc(NC(=O)CN(C)C(=O)C(C)Oc2ccc(Cl)cc2)cc1OCC (stereo not drawn),"inconclusive [inhibitor, single point]",
CCC1CCCCN1CCCNC(=O)c1ccc2c(c1)N(Cc1c(F)cccc1Cl)C(=O)CS2 (stereo not drawn),"inconclusive [inhibitor, single point]",
CCOC(=O)Cn1cc(C=O)c2ccccc21,,inactive: -15.6%
Cc1ccc(N(C)C(=O)c2cnn(-c3ccccc3)c2C)c(C)c1,"inconclusive [inhibitor, partial curve]",
Cc1cc(F)ccc1N1CCC(N2CCN(CCC(C)C)C(CCO)C2)CC1 (stereo not drawn),"inconclusive [inhibitor, partial curve]",
CC(C)c1ccc(OCC(=O)NNC(=S)NC(=O)C2CC2)cc1,"inconclusive [inhibitor, single point]",
Cc1cn(CC(=O)N(C)Cc2ccco2)c(=O)[nH]c1=O,,inactive: -6%
CCCn1c(C)cc(/C=C(\C#N)C(=O)OCC(=O)Nc2cc(OC)c(OC)c(OC)c2)c1C,"inconclusive [inhibitor, single point]",
COc1ccc(-c2csc(NC(=O)Cn3nc(C)cc3C)n2)cc1,,inactive: -28.4%
CC1(C)C2CCC1(C)C(NC(=O)/C=C/c1ccccc1)C2 (stereo not drawn),"inconclusive [inhibitor, single point]",
COc1cccc2[nH]c3c(N4CCC(C)CC4)ncnc3c12,active: 25.9 µM,
COc1ccc(C(=O)N2CCC(c3c[nH]c4ccccc34)(c3c[nH]c4ccccc34)CC2)cc1,"inconclusive [inhibitor, single point]",
Cc1ccc(OCCCC(=O)Nc2ccc(S(=O)(=O)Nc3cc(C)nc(C)n3)cc2)cc1,,inactive: -3.04%
COc1ccc(CNC(=O)C(=O)c2cn(CC(=O)N3CCCC3)c3ccccc23)cc1,,inactive: -4.63%
O=C(CCNC(=O)c1ccccc1Cl)Nc1nc(-c2ccc3ccccc3c2)cs1,"inconclusive [inhibitor, single point]",
COc1ccccc1-c1c(C)oc2cc(OCC(=O)OCc3ccccc3)ccc2c1=O,"inconclusive [inhibitor, partial curve]",
COC(=O)c1ccccc1NC(=O)C(=O)NCC1CCCO1 (stereo not drawn),"inconclusive [inhibitor, partial curve]",

Structure (SMILES),Potency,"activity change, negative = growth inhibition"
CCCOc1ccc(-c2nc(C#N)c(N3CCc4ccccc4C3)o2)cc1,"inconclusive [inhibitor, single point]",
CCn1c(SCC(=O)Nc2cc(F)ccc2C)nnc1-c1ccccc1O,"inconclusive [inhibitor, single point]",
O=C(O)c1ccccc1NC(=O)c1ccccc1Nc1ccccc1,"inconclusive [inhibitor, single point]",
CC(Oc1ccc(Cl)cc1Cl)c1nc(-c2ccc(NC(=O)c3ccncc3)cc2)no1 (stereo not drawn),active: 14.6 µM,
COc1ccccc1CNC(=O)c1oc2c(c1C)-c1nn(Cc3ccc(Cl)cc3)cc1CC2,active: 16.4 µM,
COc1ccc2c(=O)c3c(=O)n(CCc4ccccc4)c(C(C)C)nc3oc2c1,active: 25.9 µM,
CCOC(=O)N1CCN(S(=O)(=O)c2ccc(C(=O)N(CCCN(C)C)c3nc4cc(OC)ccc4s3)cc2)CC1,,inactive: -15.6%
CCN(CC)c1ccc(/C=N/NC(=O)CN2CCCc3ccccc32)cc1,"inconclusive [inhibitor, single point]",
CC(C)NC(=O)N(C)C[C@H]1OCCCC[C@@H](C)Oc2ccc(NC(=O)C3CCCCC3)cc2C(=O)N([C@H](C)CO)C[C@@H]1C,"inconclusive [inhibitor, single point]",
COc1ccc(NC(=O)c2cc(C3CC3)nc3c2c(C)nn3-c2ccc(C)cc2)cc1OC,"inconclusive [inhibitor, single point]",
O=C(NC(c1ccc(Cl)cc1)c1cnccn1)C1CCN(Cc2ccccc2)CC1 (stereo not drawn),"inconclusive [inhibitor, single point]",
COCCNc1nnc(SCC(=O)c2cc(C)n(C3CC3)c2C)s1,,inactive: -4.18%
Cc1cc(Cl)ccc1OCCCC(=O)Nc1cccc(-n2cnnn2)c1,"inconclusive [inhibitor, single point]",
CCOc1ccc(CNC(=O)C(C)n2ccc3cc(S(=O)(=O)N4CCCC4)ccc32)cc1 (stereo not drawn),"inconclusive [inhibitor, single point]",
COc1ccccc1CN(Cc1nc2ccccc2c(=O)[nH]1)C(=O)Nc1cccc(C)c1,active: 3.26 µM,
Cc1cccc(/C=C2\Sc3ccc(C(=O)N4CCOCC4)cc3N(C)C2=O)c1,"inconclusive [inhibitor, single point]",
Cc1ccccc1N=C1NC(=O)/C(=C/c2cccnc2)S1,,inactive: -14.2%
Cc1cc2oc(=O)cc(CN3CCCCC3C)c2cc1Cl (stereo not drawn),"inconclusive [inhibitor, single point]",
Cc1c(NS(C)(=O)=O)cccc1-c1nc2ccccc2s1,"inconclusive [inhibitor, single point]",
Cc1ccc(SCCC(=O)N/N=C/c2cccnc2)cc1,,inconclusive: -31.6% [inhibitor]
C[C@H](O)[C@@H]1C(=O)N2CCc3c([nH]c4ccccc34)[C@@H]2C[C@@H]1N(C)C(=O)Nc1cccc2ccccc12,"inconclusive [inhibitor, single point]",

# From PubChem BioAssay AID686979 (National Center for Advancing Translational Sciences (NCATS), 2013)
